The supplement of paper PMC3334620
Over roughly 33,000 sequences, “E-score (-0.5 to 0.5)” has its median near -0.043; the highest 2% begin near 0.37. Some of the results follow.

The sequences below were run against T1, Upc2 (UniProt Q12151) (assay: PBM E-score (8-mer binding enrichment) (E-score (-0.5 to 0.5)); higher = stronger / more preferred TF binding; most listed sequences are background and not binding sites). Conditions: protein concentration: 200 nM; construct: GST-full length.
T1 sequence: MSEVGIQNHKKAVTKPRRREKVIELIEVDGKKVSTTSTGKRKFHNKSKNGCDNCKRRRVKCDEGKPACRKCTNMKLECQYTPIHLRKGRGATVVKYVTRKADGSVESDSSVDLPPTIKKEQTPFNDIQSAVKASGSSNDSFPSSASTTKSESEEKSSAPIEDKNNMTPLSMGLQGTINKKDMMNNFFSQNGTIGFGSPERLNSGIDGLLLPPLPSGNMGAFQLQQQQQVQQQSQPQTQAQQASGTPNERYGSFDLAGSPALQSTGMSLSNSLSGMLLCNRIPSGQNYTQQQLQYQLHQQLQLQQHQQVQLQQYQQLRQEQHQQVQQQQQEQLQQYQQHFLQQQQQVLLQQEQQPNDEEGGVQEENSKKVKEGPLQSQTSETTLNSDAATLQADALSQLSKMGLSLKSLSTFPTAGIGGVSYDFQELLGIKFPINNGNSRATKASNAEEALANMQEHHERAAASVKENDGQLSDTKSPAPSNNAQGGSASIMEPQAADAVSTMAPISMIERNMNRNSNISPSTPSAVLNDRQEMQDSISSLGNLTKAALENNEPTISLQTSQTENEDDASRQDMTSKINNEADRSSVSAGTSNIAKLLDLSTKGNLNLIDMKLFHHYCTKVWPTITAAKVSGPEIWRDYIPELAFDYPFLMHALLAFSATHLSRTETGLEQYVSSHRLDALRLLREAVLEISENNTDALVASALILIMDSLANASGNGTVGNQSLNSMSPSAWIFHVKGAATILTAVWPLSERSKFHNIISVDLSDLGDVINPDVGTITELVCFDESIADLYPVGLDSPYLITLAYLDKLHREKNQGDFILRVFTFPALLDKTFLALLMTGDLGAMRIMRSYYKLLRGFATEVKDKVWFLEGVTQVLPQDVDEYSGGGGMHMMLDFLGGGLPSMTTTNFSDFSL
Method in brief: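 Universal all-10-mer Agilent arrays, fresh or stripped once, were converted to double-stranded form by primer extension. GST-tagged yeast transcription factors from PURExpress in vitro transcription/translation, full-length or DNA-binding domain only, were applied at about 100-200 nM and detected with fluorescent anti-GST. After masliner normalisation, the Universal PBM Analysis Suite scored each ungapped eight-base word together with its reverse complement by E-score.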

Row | Sequence | PBM E-score
1 | ACTATGGC | -0.0976
2 | GGTGCGCA | 0.0199
3 | ACAGATGT | -0.0314
4 | GCGCGCGA | 0.162
5 | ACTTGGAG | -0.2
6 | AGTCGACT | 0.0522
7 | GACGAAAC | 0.251
8 | ACATTCCC | -0.0778
9 | AGTGTGGA | -0.244
10 | ATTCGACG | 0.0604
11 | ATACCCAC | -0.0254
12 | TATTCAAA | 0.0284
13 | AGTGTCAT | -0.0592
14 | AAGATAAA | 0.108
15 | GCTTCACC | -0.256
16 | CTCATCAG | -0.0374
17 | AGGACCGA | 0.0447
18 | CAGCGTGA | -0.0803
19 | AGGATTTA | -0.0924
20 | ATGTTTAG | 0.0586
21 | TCTCCCAA | -0.226
22 | AAGCGGTA | 0.138
23 | ACGCGAGG | 0.219
24 | CCTCTATC | -0.122
25 | ATCCTCAG | -0.187

Row | Sequence | PBM E-score
26 | CGCCTCGA | -0.0127
27 | AACAAAGC | 0.00917
28 | ATCTTGTG | -0.214
29 | AAGGAAGT | -0.209
30 | CATAACCG | 0.133
31 | CCCCGGCC | -0.347
32 | CCACCGCA | 0.0444
33 | TACATTCA | -0.208
34 | TACAGACA | 0.203
35 | GGTTTTAC | 0.0509
36 | CCTTCCGA | -0.192
37 | TGACGACA | 0.0658
38 | CCCGCGCA | -0.0994
39 | ACGCAAAA | 0.182
40 | CCCCTACA | -0.345
41 | AGTTTCAT | 0.0688
42 | GCAGCATA | -0.188
43 | CTTCGAAG | -0.0578
44 | GATCGTGC | 0.0519
45 | GAAAAGCA | 0.0175
46 | CACCAGAC | 0.00853
47 | AACGGTAG | 0.231
48 | GCACTGGC | -0.105
49 | ATGCTTAC | -0.0957
50 | CATGCGAC | 0.141

Row | Sequence | PBM E-score
51 | CAAATTTA | -0.0396
52 | ACTCGTCC | -0.141
53 | GAGCACAA | -0.0319
54 | CCGCCGCC | -0.0404
55 | GCAAGCAA | -0.0268
56 | AATTGGAG | -0.158
57 | ACAGGGAC | -0.0357
58 | CTCCGTGC | -0.251
59 | TAAACCCA | -0.0418
60 | CTTATCGA | 0.0265
61 | AGCTCCAT | -0.216
62 | GGTATATA | 0.152
63 | ACACTATA | 0.0283
64 | CATGAGGC | -0.218
65 | GTCTATAA | 0.0937
66 | ATCAACAG | -0.245
67 | AGATAGAA | -0.0894
68 | ACAAATCG | -0.0678
69 | AAGATAGG | -0.16
70 | AGCATATG | -0.102
71 | ATTGGGGC | -0.313
72 | AAGGCCCG | 0.0667
73 | GCTTCTGA | 0.0116
74 | AGACATGA | -0.203
75 | GGAACTTA | 0.113

Row | Sequence | PBM E-score
76 | AAGAGCGT | 0.179
77 | ATTCACAC | -0.179
78 | GCTACGCA | 0.204
79 | GCGATGCC | 0.0858
80 | GTGAGCAA | -0.0436
81 | CCTAGGAC | -0.279
82 | GAGTCAGC | -0.101
83 | CCCCTCAC | -0.178
84 | CTTCTGGA | -0.224
85 | AGAATTCA | -0.128
86 | AGGGCCAG | -0.241
87 | TGCTTCCA | -0.202
88 | ACTGCAGT | -0.141
89 | GGCCTCCC | -0.183
90 | ACTCCCAT | -0.133
91 | ATTGACTG | -0.144
92 | TTATACAA | 0.0521
93 | ATTTTCGG | 0.0581
94 | CCGGGACG | -0.248
95 | CATCTCCA | -0.321
96 | ACGAACAT | 0.363
97 | CGCTGTAA | -0.0506
98 | ACACATTG | -0.155
99 | AGCCCTAC | 0.00435
100 | GTGTTGCA | -0.0945

Row | Sequence | PBM E-score
101 | CAATAGCG | -0.2
102 | CTATTAAC | 0.0619
103 | GGGATTAA | -0.0596
104 | ATAAGGAA | -0.0142
105 | GTCATCTA | -0.00467
106 | GACATGCC | -0.118
107 | AGAAATCT | 0.0725
108 | CATCCGAC | -0.0538
109 | ACAGGATG | -0.0122
110 | ACAGGAGA | -0.0252
111 | ACTCCCAG | -0.162
112 | TGGGAGAA | -0.254
113 | ATCAGCCG | -0.0021
114 | ACATCCGC | 0.0487
115 | CTACAATC | 0.0566
116 | CCGACAGG | -0.0268
117 | CAATACAG | -0.0673
118 | ATCGCGTG | 0.0268
119 | CTTTGGAA | -0.0689
120 | CGGATATA | 0.262
121 | CGCTGCTC | -0.147
122 | CCTTAATC | -0.135
123 | AAATTCGC | 0.176
124 | TAAACAAA | 0.137
125 | CGGCTTGA | -0.054

Row | Sequence | PBM E-score
126 | CAACGCCC | -0.14
127 | CACCTCTA | -0.0333
128 | CTGTTAAC | 0.14
129 | CCTTACCA | -0.235
130 | CCAGCACC | -0.239
131 | ACTTAAAG | -0.118
132 | AATGTTAT | -0.00548
133 | ACCACCCC | -0.0994
134 | CAGGGCCC | -0.122
135 | CGTATTTA | 0.365
136 | AGGCTACA | -0.294
137 | ACTCTCAA | -0.15
138 | AAGGTTAG | -0.174
139 | CGATCAGC | 0.0725
140 | GGCCAGTA | 0.0288
141 | AGATCCCG | -0.0343
142 | GGACCTCA | -0.265
143 | GCTTCAAA | 0.0404
144 | ATGAGGGC | -0.124
145 | AGAACATC | -0.105
146 | AATGTGCG | 0.184
147 | ACAAAGGC | 0.00837
148 | AACGTGCC | 0.0771
149 | AGCTTCTG | -0.107
150 | GGCACTGA | -0.0605

Row | Sequence | PBM E-score
151 | CTAACTTC | 0.0255
152 | CACGTGCA | -0.021
153 | CTTAGCAA | 0.0395
154 | ACTGATTC | -0.0442
155 | GAAATTCA | 0.114
156 | AACCTATG | -0.247
157 | AGCTTAAA | 0.123
158 | CGGTAAGC | 0.0789
159 | CCGCAAGC | -0.24
160 | GTCGCGAC | 0.206
161 | AGTGTAGG | -0.0434
162 | ACTCAAGT | 0.00619
163 | GGGCTACA | -0.0609
164 | TGCGGACA | 0.0353
165 | CACAGAGC | -0.204
166 | AGATTTTG | -0.0723
167 | GACATAAC | 0.0164
168 | CACCCGCA | -0.185
169 | AACAACAT | 0.00118
170 | GCGCTTAC | 0.113
171 | CGCCGACG | -0.107
172 | ACACCCCC | -0.312
